In PMC12820563:
Some of the results follow. The list includes weakly bound sequences.

These sequences were tested against T1, MBP-FoxP3dN (UniProt Q99JB6) (assay: PD-seq (MBP pull-down with sequencing)). Details: 20 mM Tris-HCl pH 7.5, 100 mM NaCl, 1.5 mM MgCl2, 0.4 uM protein, 0.1 uM dsDNA library, 30 min, room temperature, amylose pull-down; high values mean tight binding; double strand, one strand shown.
T1 sequence: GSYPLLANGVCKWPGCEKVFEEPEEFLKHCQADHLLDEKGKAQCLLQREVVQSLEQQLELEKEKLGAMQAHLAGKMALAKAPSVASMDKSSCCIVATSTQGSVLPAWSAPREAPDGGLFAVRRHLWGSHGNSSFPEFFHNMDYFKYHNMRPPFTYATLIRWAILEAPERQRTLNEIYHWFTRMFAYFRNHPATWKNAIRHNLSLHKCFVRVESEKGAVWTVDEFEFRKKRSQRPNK
Work on “GATGATTGTTCTCCCAGCTGATGAATTACACTCGTCGAGTAAACAAATTTTCCTAATCTTTCTGTTCAAGCGCCATCTAC” yielded a binding signal (RPM ratio (pull-down/input)) of 0.633. Work on “GATGATTGTTCTCCCAGCTGATGAATTTACGACGTCGAGTAAACAAATTTTCCTAATCTTTCTGTTCAAGCGCCATCTAC” yielded a binding signal (RPM ratio (pull-down/input)) of 0.474. “GATGATTGTTCTCCCAGCTGATGAATTGCTGGCATCGAGTAAACAAATTTTCCTAATCTTTCTGTTCAAGCGCCATCTAC” was tested, and the binding signal (RPM ratio (pull-down/input)) was 0.912. “GATGATTGTTCTCCCAGCTGATGAATTCTCATCTTCGAGTAAACAAATTTTCCTAATCTTTCTGTTCAAGCGCCATCTAC” showed a binding signal (RPM ratio (pull-down/input)) of 0.353. “GATGATTGTTCTCCCAGCTGATGAATTAAGCATATCGAGTAAACAAATTTTCCTAATCTTTCTGTTCAAGCGCCATCTAC” showed a binding signal (RPM ratio (pull-down/input)) of 2.49. Work on “GATGATTGTTCTCCCAGCTGATGAATTCTCATGGTCGAGTAAACAAATTTTCCTAATCTTTCTGTTCAAGCGCCATCTAC” yielded a binding signal (RPM ratio (pull-down/input)) of 0.26. “GATGATTGTTCTCCCAGCTGATGAATTAGGTGAGTCGAGTAAACAAATTTTCCTAATCTTTCTGTTCAAGCGCCATCTAC” showed a binding signal (RPM ratio (pull-down/input)) of 0.531. For “GATGATTGTTCTCCCAGCTGATGAATTCTGAACATCGAGTAAACAAATTTTCCTAATCTTTCTGTTCAAGCGCCATCTAC”, the binding signal (RPM ratio (pull-down/input)) was 0.395. “GATGATTGTTCTCCCAGCTGATGAATTCAGACGCTCGAGTAAACAAATTTTCCTAATCTTTCTGTTCAAGCGCCATCTAC” was tested, and the binding signal (RPM ratio (pull-down/input)) was 0.349. Work on “GATGATTGTTCTCCCAGCTGATGAATTGGCTGGTTCGAGTAAACAAATTTTCCTAATCTTTCTGTTCAAGCGCCATCTAC” yielded a binding signal (RPM ratio (pull-down/input)) of 0.647. “GATGATTGTTCTCCCAGCTGATGAATTATGTGGGTCGAGTAAACAAATTTTCCTAATCTTTCTGTTCAAGCGCCATCTAC” gave a binding signal (RPM ratio (pull-down/input)) of 1.31. “GATGATTGTTCTCCCAGCTGATGAATTTAGGAACTCGAGTAAACAAATTTTCCTAATCTTTCTGTTCAAGCGCCATCTAC” showed a binding signal (RPM ratio (pull-down/input)) of 0.324. With “GATGATTGTTCTCCCAGCTGATGAATTCAGAAATTCGAGTAAACAAATTTTCCTAATCTTTCTGTTCAAGCGCCATCTAC” the binding signal (RPM ratio (pull-down/input)) was 0.413. Sequence “GATGATTGTTCTCCCAGCTGATGAATTGCTATTGTCGAGTAAACAAATTTTCCTAATCTTTCTGTTCAAGCGCCATCTAC” has a binding signal (RPM ratio (pull-down/input)) of 2.12. “GATGATTGTTCTCCCAGCTGATGAATTTGTGGATTCGAGTAAACAAATTTTCCTAATCTTTCTGTTCAAGCGCCATCTAC” was tested, and the binding signal (RPM ratio (pull-down/input)) was 3.34. Sequence “GATGATTGTTCTCCCAGCTGATGAATTTTGTCGTTCGAGTAAACAAATTTTCCTAATCTTTCTGTTCAAGCGCCATCTAC” has a binding signal (RPM ratio (pull-down/input)) of 3.85. With “GATGATTGTTCTCCCAGCTGATGAATTAAAAGGTTCGAGTAAACAAATTTTCCTAATCTTTCTGTTCAAGCGCCATCTAC” the binding signal (RPM ratio (pull-down/input)) was 0.19. With “GATGATTGTTCTCCCAGCTGATGAATTATATGCCTCGAGTAAACAAATTTTCCTAATCTTTCTGTTCAAGCGCCATCTAC” the binding signal (RPM ratio (pull-down/input)) was 0.913. Sequence “GATGATTGTTCTCCCAGCTGATGAATTGAAACTCTCGAGTAAACAAATTTTCCTAATCTTTCTGTTCAAGCGCCATCTAC” has a binding signal (RPM ratio (pull-down/input)) of 0.35. With “GATGATTGTTCTCCCAGCTGATGAATTGAACTGATCGAGTAAACAAATTTTCCTAATCTTTCTGTTCAAGCGCCATCTAC” the binding signal (RPM ratio (pull-down/input)) was 0.275. Sequence “GATGATTGTTCTCCCAGCTGATGAATTCCCAGATTCGAGTAAACAAATTTTCCTAATCTTTCTGTTCAAGCGCCATCTAC” has a binding signal (RPM ratio (pull-down/input)) of 0.173. Sequence “GATGATTGTTCTCCCAGCTGATGAATTTGTGTCGTCGAGTAAACAAATTTTCCTAATCTTTCTGTTCAAGCGCCATCTAC” has a binding signal (RPM ratio (pull-down/input)) of 5. In the case of “GATGATTGTTCTCCCAGCTGATGAATTCAGATTCTCGAGTAAACAAATTTTCCTAATCTTTCTGTTCAAGCGCCATCTAC”, the binding signal (RPM ratio (pull-down/input)) is reported as 0.534. For “GATGATTGTTCTCCCAGCTGATGAATTCGAGCATTCGAGTAAACAAATTTTCCTAATCTTTCTGTTCAAGCGCCATCTAC”, the binding signal (RPM ratio (pull-down/input)) was 4.97. “GATGATTGTTCTCCCAGCTGATGAATTTAACATTTCGAGTAAACAAATTTTCCTAATCTTTCTGTTCAAGCGCCATCTAC” showed a binding signal (RPM ratio (pull-down/input)) of 0.932. “GATGATTGTTCTCCCAGCTGATGAATTAACCCTCTCGAGTAAACAAATTTTCCTAATCTTTCTGTTCAAGCGCCATCTAC” was tested, and the binding signal (RPM ratio (pull-down/input)) was 0.3. “GATGATTGTTCTCCCAGCTGATGAATTCCAAACATCGAGTAAACAAATTTTCCTAATCTTTCTGTTCAAGCGCCATCTAC” was tested, and the binding signal (RPM ratio (pull-down/input)) was 1.25. “GATGATTGTTCTCCCAGCTGATGAATTCAGAGACTCGAGTAAACAAATTTTCCTAATCTTTCTGTTCAAGCGCCATCTAC” was tested, and the binding signal (RPM ratio (pull-down/input)) was 0.426. “GATGATTGTTCTCCCAGCTGATGAATTGTACTTTTCGAGTAAACAAATTTTCCTAATCTTTCTGTTCAAGCGCCATCTAC” showed a binding signal (RPM ratio (pull-down/input)) of 0.551. “GATGATTGTTCTCCCAGCTGATGAATTTCCCTGATCGAGTAAACAAATTTTCCTAATCTTTCTGTTCAAGCGCCATCTAC” showed a binding signal (RPM ratio (pull-down/input)) of 0.188. “GATGATTGTTCTCCCAGCTGATGAATTAATAGTTTCGAGTAAACAAATTTTCCTAATCTTTCTGTTCAAGCGCCATCTAC” was tested, and the binding signal (RPM ratio (pull-down/input)) was 0.67. “GATGATTGTTCTCCCAGCTGATGAATTACTCATGTCGAGTAAACAAATTTTCCTAATCTTTCTGTTCAAGCGCCATCTAC” gave a binding signal (RPM ratio (pull-down/input)) of 0.381.
